# Laboratory results published in the supplement of paper PMC8728848.
# Some of the results follow.
# Tests used:
# Assay in all cases: glycan array binding signal (z-score within array); higher = stronger binding
# Settings in all cases: glycan notation: IUPAC condensed, linker removed
# [1] = molecular target: Neu5Ac(a2-3)Gal(b1-3)GalNAc(b1-3)Gal(b1-4)GlcNAc
# Method in brief: (§1)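 The binding signal is a Z-score computed within each array. Data were drawn from 3228 arrays in the Consortium for Functional Glycomics database, restricted to those with a known protein sequence. Scores were averaged over arrays of the same protein sequence at different concentrations or buffers, and over linkers, and negative values can be taken as non-binding.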
# [2] = molecular target: Neu5Ac(a2-3)Gal(b1-3)GalNAc(b1-4)[Neu5Ac(a2-3)]Gal(b1-4)Glc
# Method in brief: as §1
# [3] = molecular target: Neu5Ac(a2-3)Gal(b1-3)GalNAc6S
# Method in brief: as §1
# [4] = molecular target: Neu5Ac(a2-3)Gal(b1-3)GlcNAc
# Method in brief: as §1
# [5] = molecular target: Neu5Ac(a2-3)Gal(b1-3)GlcNAc6S
# Method in brief: as §1
# [6] = molecular target: Neu5Ac(a2-3)Gal(b1-3)[Fuc(a1-4)]GlcNAc
# Method in brief: as §1
# [7] = molecular target: Neu5Ac(a2-3)Gal(b1-3)[Fuc(a1-4)]GlcNAc(b1-3)Gal(b1-4)[Fuc(a1-3)]GlcNAc
# Method in brief: as §1
# [8] = molecular target: Neu5Ac(a2-3)Gal(b1-3)[Neu5Ac(a2-3)Gal(b1-4)]GlcNAc
# Method in brief: as §1
# [9] = molecular target: Neu5Ac(a2-3)Gal(b1-3)[Neu5Ac(a2-6)]GalNAc
# Method in brief: as §1
# [10] = molecular target: Neu5Ac(a2-3)Gal(b1-4)Glc
# Method in brief: as §1
# [11] = molecular target: Neu5Ac(a2-3)Gal(b1-4)GlcNAc
# Method in brief: as §1
# [12] = molecular target: Neu5Ac(a2-3)Gal(b1-4)GlcNAc(b1-2)Man(a1-3)[Neu5Ac(a2-3)Gal(b1-4)GlcNAc(b1-2)Man(a1-6)]Man(b1-4)GlcNAc(b1-4)GlcNAc
# Method in brief: as §1
# [13] = molecular target: Neu5Ac(a2-3)Gal(b1-4)GlcNAc(b1-3)Gal(b1-4)GlcNAc
# Method in brief: as §1
# [14] = molecular target: Neu5Ac(a2-3)Gal(b1-4)GlcNAc(b1-3)Gal(b1-4)GlcNAc(b1-3)Gal(b1-4)GlcNAc
# Method in brief: as §1
# [15] = molecular target: Neu5Ac(a2-3)Gal(b1-4)GlcNAc(b1-3)Gal(b1-4)[Fuc(a1-3)]GlcNAc
# Method in brief: as §1
# [16] = molecular target: Neu5Ac(a2-3)Gal(b1-4)GlcNAc6S
# Method in brief: as §1
# [17] = molecular target: Neu5Ac(a2-3)Gal(b1-4)[Fuc(a1-3)]GlcNAc
# Method in brief: as §1
# [18] = molecular target: Neu5Ac(a2-3)Gal(b1-4)[Fuc(a1-3)]GlcNAc(b1-3)Gal
# Method in brief: as §1
# [19] = molecular target: Neu5Ac(a2-3)Gal(b1-4)[Fuc(a1-3)]GlcNAc(b1-3)Gal(b1-4)GlcNAc
# Method in brief: as §1
# [20] = molecular target: Neu5Ac(a2-3)Gal(b1-4)[Fuc(a1-3)]GlcNAc(b1-3)Gal(b1-4)[Fuc(a1-3)]GlcNAc(b1-3)Gal(b1-4)[Fuc(a1-3)]GlcNAc
# Method in brief: as §1
# [21] = molecular target: Neu5Ac(a2-3)Gal(b1-4)[Fuc(a1-3)]GlcNAc6S
# Method in brief: as §1
# [22] = molecular target: Neu5Ac(a2-3)Gal6S(b1-4)GlcNAc
# Method in brief: as §1
# [23] = molecular target: Neu5Ac(a2-3)Gal6S(b1-4)[Fuc(a1-3)]GlcNAc
# Method in brief: as §1
# [24] = molecular target: Neu5Ac(a2-3)GalNAc
# Method in brief: as §1
# [25] = molecular target: Neu5Ac(a2-3)GalNAc(b1-4)GlcNAc
# Method in brief: as §1
# [26] = molecular target: Neu5Ac(a2-3)[GalNAc(b1-4)]Gal(b1-4)Glc
# Method in brief: as §1
# [27] = molecular target: Neu5Ac(a2-3)[GalNAc(b1-4)]Gal(b1-4)GlcNAc
# Method in brief: as §1
# [28] = molecular target: Neu5Ac(a2-3)[Neu5Ac(a2-6)]GalNAc
# Method in brief: as §1
# [29] = molecular target: Neu5Ac(a2-6)Gal
# Method in brief: as §1
# [30] = molecular target: Neu5Ac(a2-6)Gal(b1-4)Glc
# Method in brief: as §1
# [31] = molecular target: Neu5Ac(a2-6)Gal(b1-4)GlcNAc
# Method in brief: as §1
# [32] = molecular target: Neu5Ac(a2-6)Gal(b1-4)GlcNAc(b1-3)Gal(b1-4)GlcNAc
# Method in brief: as §1
# [33] = molecular target: Neu5Ac(a2-6)Gal(b1-4)GlcNAc(b1-3)Gal(b1-4)[Fuc(a1-3)]GlcNAc(b1-3)Gal(b1-4)[Fuc(a1-3)]GlcNAc
# Method in brief: as §1
# [34] = molecular target: Neu5Ac(a2-6)Gal(b1-4)GlcNAc6S
# Method in brief: as §1
# [35] = molecular target: Neu5Ac(a2-6)GalNAc
# Method in brief: as §1
# [36] = molecular target: Neu5Ac(a2-6)GalNAc(b1-4)GlcNAc
# Method in brief: as §1
# [37] = molecular target: Neu5Ac(a2-8)Neu5Ac
# Method in brief: as §1
# [38] = molecular target: Neu5Ac(a2-8)Neu5Ac(a2-3)Gal(b1-4)Glc
# Method in brief: as §1
binder,measurement,setting,value
"F17dG (Escherichia coli), Q47199 (protein) MTNFYKVFLAVFILVCCNISQAAVSFIGSTENDVGPSPGSYSRTHAMDNLPFVYNTGNNIGYQNANVWRISKGFCVGLDGKVDLPVVGSLDGQSIYGLTEEVGLLIWMGDTNYSRGTAMSGNSWENVFSGWCVGANTASTQGLSVRVTPVILKRNSSARYSVQKTSIGSIRMRPYNGSSAGSVQTTVNFSLNPFTLNDTVTSCRLLTPSAVNVSLAAISAGQLPSSGDEVVAGTTSLKLQCDAGVTVWATLTDATTPSNRSDILTLTGASTATGVGLRIYKNTDSTPLKFGPDSPVKGNENQWQLSTGTETSPSVRLYVKYVNTGEGINPGTVNGISTFTFSYQ",glycan array binding signal (z-score),[1],-0.204
same,glycan array binding signal (z-score),[2],-0.4
same,glycan array binding signal (z-score),[3],0.469
same,glycan array binding signal (z-score),[4],-0.345
same,glycan array binding signal (z-score),[5],-0.318
same,glycan array binding signal (z-score),[6],-0.383
same,glycan array binding signal (z-score),[7],-0.005
same,glycan array binding signal (z-score),[8],-0.399
same,glycan array binding signal (z-score),[9],-0.361
same,glycan array binding signal (z-score),[10],-0.156
same,glycan array binding signal (z-score),[11],-0.354
same,glycan array binding signal (z-score),[12],-0.14
same,glycan array binding signal (z-score),[13],-0.104
same,glycan array binding signal (z-score),[14],-0.3
same,glycan array binding signal (z-score),[15],-0.397
same,glycan array binding signal (z-score),[16],-0.339
same,glycan array binding signal (z-score),[17],-0.21
same,glycan array binding signal (z-score),[18],-0.343
same,glycan array binding signal (z-score),[19],-0.328
same,glycan array binding signal (z-score),[20],-0.342
same,glycan array binding signal (z-score),[21],0.279
same,glycan array binding signal (z-score),[22],-0.183
same,glycan array binding signal (z-score),[23],-0.347
same,glycan array binding signal (z-score),[24],-0.327
same,glycan array binding signal (z-score),[25],-0.004
same,glycan array binding signal (z-score),[26],-0.213
same,glycan array binding signal (z-score),[27],-0.346
same,glycan array binding signal (z-score),[28],0.065
same,glycan array binding signal (z-score),[29],-0.241
same,glycan array binding signal (z-score),[30],-0.214
same,glycan array binding signal (z-score),[31],-0.372
same,glycan array binding signal (z-score),[32],-0.357
same,glycan array binding signal (z-score),[33],-0.185
same,glycan array binding signal (z-score),[34],-0.077
same,glycan array binding signal (z-score),[35],-0.348
same,glycan array binding signal (z-score),[36],-0.371
same,glycan array binding signal (z-score),[37],-0.397
same,glycan array binding signal (z-score),[38],-0.05
